Assay results taken from the RNAGym collection of RNA variant scans (doi:10.1073/pnas.2313332121).
Variants at the floor of the assay are shown more often than the library holds them.

B1: TPR 5TU (parent)
chain: GGAUCUUCUCGAUCUAACAAAAAAGACAAAUCUGCCACAAAGCUUGAGAGCAUCUUCGGAUGCAGAGGCGGCAGCCUUCGGUGGCGCGAUAGCGCCAACGUUCUCAACUAUGACACGCAAAACGCGUGCUCCGUUGAAUGGAGUUUAUCAUG

Variants of: B1
Test: polymerase ribozyme fitness, log enrichment relative to wild type (log ratio); higher = more active; in vitro selection for triplet polymerase activity
Outline: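 Mutant libraries of both subunits of a heterodimeric triplet polymerase ribozyme were PCR-built, transcribed, and selected once in triplicate, with frozen incubation at −7 °C and capture of gel-excised extended constructs on streptavidin beads before RT-PCR. Illumina sequencing of input and output libraries was filtered to genotypes with ≥10 input reads and ≥1 read per output. Fitness is the logarithm of genotype enrichment over wild-type enrichment, using inverse-variance-weighted replicate averages. The logarithm is base 2.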

Row | Variant | polymerase ribozyme fitness (log ratio)
1 | C35U A41G C96A U144A | -0.485
2 | C35U A41G G84C G112U | ≤ -4.2
3 | C35U A47U U148A A150U | ≤ -4.2
4 | C35U A49C | ≤ -4.2
5 | C35U A49C G59A C96A U148G A150C | ≤ -4.2
6 | C35U A49C G141A | ≤ -4.2
7 | C35U A49G A66C U82G G83A C103A A115G C132U | ≤ -4.2
8 | C35U A49G C103U A137U | ≤ -4.2
9 | C35U A49G G50A U77G C96U G143C A150G U151A | ≤ -4.2
10 | C35U A52C U53G C54U U82G C132U U144A | ≤ -4.2
11 | C35U A52G C76A A89C U145A | -3.45
12 | C35U A52U C95G A106U A107G C118G | ≤ -4.2
13 | C35U A60C A150C | ≤ -4.2
14 | C35U A60G C79U G86C C93G G94A U104C | ≤ -4.2
15 | C35U A64C G86U G152A | ≤ -4.2
16 | C35U A66G C85A A98G | ≤ -4.2
17 | C35U A73U C75G C76G U90C | ≤ -4.2
18 | C35U A91C G94A U104G | ≤ -4.2
19 | C35U A91G C95A | ≤ -4.2
20 | C35U A91U | ≤ -4.2
21 | C35U A97G U134G U144G | -2.34
22 | C35U A98G C99A U101C G141A | ≤ -4.2
23 | C35U C38A A91G U144C | ≤ -4.2
24 | C35U C38A G83U G152A | ≤ -4.2

Row | Variant | polymerase ribozyme fitness (log ratio)
25 | C35U C38G G86A G126A G136U | ≤ -4.2
26 | C35U C38U C76G C85G U101G A138C A147G U151G | ≤ -4.2
27 | C35U C43A A60C U101G | ≤ -4.2
28 | C35U C43A G50A U82A | ≤ -4.2
29 | C35U C43A G58U C75G C87G A121U C123U G133A | ≤ -4.2
30 | C35U C43U C93U | ≤ -4.2
31 | C35U C43U G84A G94C | ≤ -4.2
32 | C35U C51G C54U C85G C108U C125A | ≤ -4.2
33 | C35U C51G G71U C131U | ≤ -4.2
34 | C35U C54A G83C C149A | ≤ -4.2
35 | C35U C54A G84A U146C | -1
36 | C35U C54A U82A C99A C105U A138C | ≤ -4.2
37 | C35U C54U U55A C116G | 0.41
38 | C35U C57A U61A G67A C95A C103A C116U | ≤ -4.2
39 | C35U C57G C85A G124A A138C U139A A142C U144G | ≤ -4.2
40 | C35U C57G C87U C99G G136A U151G | ≤ -4.2
41 | C35U C57U C95G C99G A120U | -3.85
42 | C35U C69U U102G C108U C129G | ≤ -4.2
43 | C35U C75U G83A G84A C95U C96U | -1.5
44 | C35U C76A C95U U148A | ≤ -4.2
45 | C35U C76G A89U A97G | ≤ -4.2
46 | C35U C76U G81U G140A U151G | ≤ -4.2
47 | C35U C85A G86U U90A G94U | ≤ -4.2
48 | C35U C85G U139A | ≤ -4.2

Row | Variant | polymerase ribozyme fitness (log ratio)
49 | C35U C85U A97U U111C U144C | ≤ -4.2
50 | C35U C87A C93U G136U G140A | ≤ -4.2
51 | C35U C87G | -3.84
52 | C35U C87U A107G G126A G136U G140U | ≤ -4.2
53 | C35U C93A C103G | ≤ -4.2
54 | C35U C93G A98G C105U G141C | ≤ -4.2
55 | C35U C93G G141A | -3.56
56 | C35U C95A | -0.608
57 | C35U C96U U101C C118U | -0.95
58 | C35U C118U | -0.573
59 | C35U C129U | -0.479
60 | C35U C149U | -1.57
61 | C35U G42A G65C U77G C87A U101G G143A U151A | ≤ -4.2
62 | C35U G42C C85U U127G | ≤ -4.2
63 | C35U G42C G68U C76U | ≤ -4.2
64 | C35U G42U C57A A150G | ≤ -4.2
65 | C35U G42U C57U U109A U130A | ≤ -4.2
66 | C35U G42U C93G C95A A97U G141A | ≤ -4.2
67 | C35U G48A C54U G81A G141A | ≤ -4.2
68 | C35U G48A C87A U101G | ≤ -4.2
69 | C35U G48U C96U U101G C108A A115U G133A A150G | ≤ -4.2
70 | C35U G50A A52C C57A A66U G88C A98U A115G G141A | ≤ -4.2
71 | C35U G50A C87U U135G C149U | ≤ -4.2
72 | C35U G50C C76A C79G C87G A142C G152U | ≤ -4.2

Row | Variant | polymerase ribozyme fitness (log ratio)
73 | C35U G50U G68A C99G C114U U139G | ≤ -4.2
74 | C35U G58A A60C C93G C96U C105U C116U | ≤ -4.2
75 | C35U G58A A60U G65A G68C U82G G88C A97U | ≤ -4.2
76 | C35U G58A C95U | -0.16
77 | C35U G58C U77A A120U A122G | ≤ -4.2
78 | C35U G58C U90G U104A G126A U135A U145G | ≤ -4.2
79 | C35U G59A A66C G84U C93U A98U G100A A106C A142C | ≤ -4.2
80 | C35U G59A G83U A98C G128C | -3.94
81 | C35U G59C G81A G83A A110G G133C | ≤ -4.2
82 | C35U G59U U102G U139A U144G C149G | ≤ -4.2
83 | C35U G65C C87G C131A | ≤ -4.2
84 | C35U G68A C76G U148C | ≤ -4.2
85 | C35U G71C G81A A89C C95A | ≤ -4.2
86 | C35U G71U | -3.53
87 | C35U G71U A98U C114G | ≤ -4.2
88 | C35U G74C C99U | -4.12
89 | C35U G80A A91G G136A | -3.57
90 | C35U G86U C95G | -3.9
91 | C35U G92A A122G | -3.92
92 | C35U G92C U135C | -2.73
93 | C35U G92U A98G C105G G124U A150G | ≤ -4.2
94 | C35U G133U | -3.79
95 | C35U G136A | 0.0897
96 | C35U U44A A49C G74U G80A U109G A121G | ≤ -4.2

Row | Variant | polymerase ribozyme fitness (log ratio)
97 | C35U U44A C93U U134C | ≤ -4.2
98 | C35U U45A A49C G80U C85G A106U | ≤ -4.2
99 | C35U U45A G58A G124U | ≤ -4.2
100 | C35U U45A G83C C85G A97G G141C | ≤ -4.2
101 | C35U U55A U56A G92A A110U U135A G152C | ≤ -4.2
102 | C35U U55G C57A A60C G88U C96A U104C U127A U134C G136C A142G U146A | ≤ -4.2
103 | C35U U56A G59A G71A C85G C108G | ≤ -4.2
104 | C35U U56A G68A A91U A110G G136U G143U | ≤ -4.2
105 | C35U U56A G74C A89C U101G C125A U130A | ≤ -4.2
106 | C35U U61A G86A C125G G141U | ≤ -4.2
107 | C35U U77A C149A | ≤ -4.2
108 | C35U U78A G128A | ≤ -4.2
109 | C35U U82A C93A U101G | ≤ -4.2
110 | C35U U135A | -0.972
111 | C35U U144A C149G A150C | ≤ -4.2
112 | C36A A37U U55G U78C G83C C116A C123G A138U U148G | ≤ -4.2
113 | C36A A39G G59U C85A A98U A107C | ≤ -4.2
114 | C36A A40C G83C A106G U144A | ≤ -4.2
115 | C36A A40G C118U C129U A150G | ≤ -4.2
116 | C36A A41C C76A U102G C123A U148G | ≤ -4.2
117 | C36A A47C G59U | ≤ -4.2
118 | C36A A47C G67U G92C A97C A119U C123G U127A | ≤ -4.2
119 | C36A A49C G71U G92A A107G U145C | ≤ -4.2
120 | C36A A52G C85G C105G U146A | ≤ -4.2

Row | Variant | polymerase ribozyme fitness (log ratio)
121 | C36A A64C C108A U148A | ≤ -4.2
122 | C36A A66C | ≤ -4.2
123 | C36A A66U C93G | ≤ -4.2
124 | C36A A121U | -3.23
125 | C36A A150U | -4.01
126 | C36A C43G C54U C69G C95U A107C | ≤ -4.2
127 | C36A C43U A60C C108U | ≤ -4.2
128 | C36A C54A U55G C95G G112U C129U | ≤ -4.2
129 | C36A C54G U61G C79A G80A U102C | ≤ -4.2
130 | C36A C57U A66C C99A | ≤ -4.2
131 | C36A C57U C95G G152A | ≤ -4.2
132 | C36A C63U | -4.08
133 | C36A C75A C87G A106U C149G | ≤ -4.2
134 | C36A C76G U82A | ≤ -4.2
135 | C36A C76U | ≤ -4.2
136 | C36A C76U C85U C96G G128A G141A | ≤ -4.2
137 | C36A C79A C93A A115G A121U | ≤ -4.2
138 | C36A C79U C85U C95A C108U C149U | ≤ -4.2
139 | C36A C87G A91C G92C A97U C125G | ≤ -4.2
140 | C36A C87G G100C C123U U130A A142C | ≤ -4.2
141 | C36A C87U G88C G124U | ≤ -4.2
142 | C36A C93A C105G C125A | ≤ -4.2
143 | C36A C93U G100U | ≤ -4.2
144 | C36A C95U | -3.7

Row | Variant | polymerase ribozyme fitness (log ratio)
145 | C36A C95U C96A A142G G152U | ≤ -4.2
146 | C36A C95U C125G U127C | ≤ -4.2
147 | C36A C96A | ≤ -4.2
148 | C36A C96G U104A C105A | ≤ -4.2
149 | C36A C96U A121C A150U | ≤ -4.2
150 | C36A C105A | ≤ -4.2
151 | C36A G46C C79U G88U U151A | ≤ -4.2
152 | C36A G48A C93U A113U C118G U144G A150U | ≤ -4.2
153 | C36A G50C U53A U56A C93U A115U | ≤ -4.2
154 | C36A G58A C93G A107C C118A | ≤ -4.2
155 | C36A G59A C69A A97U C131A A147G | ≤ -4.2
156 | C36A G59C A91C U151G | ≤ -4.2
157 | C36A G62A G86U G112C | ≤ -4.2
158 | C36A G67C G68C A73U C87A U148C | ≤ -4.2
159 | C36A G68U C72U G94C | ≤ -4.2
160 | C36A G70A A73G G86C A106U C108U | ≤ -4.2
161 | C36A G70C C72A G84U C87U | ≤ -4.2
162 | C36A G70U G80U C105U | -0.569
163 | C36A G83A U134A | ≤ -4.2
164 | C36A G84A | -3.37
165 | C36A G84A C96A U127C U130C | ≤ -4.2
166 | C36A G92A C99A A121C | ≤ -4.2
167 | C36A G92A U101A | ≤ -4.2
